Assay results from PubChem BioAssay AID624172 (National Center for Advancing Translational Sciences (NCATS), 2012).
Among all 380,000 compounds or so, about 25 (0.007%) were called active. Inconclusive means that the source gave no clear call. Such entries were picked first, then a sample of the others. The call rests on the fitted dose curve; in most records, active means well fitted activation curve with a large enough effect; inconclusive means small, poorly fitted or top-dose-only effect; inactive means no such curve, though single readings can be large or run the other way. No potency is given beside an inconclusive call; the fits are too rough.

biological target: Glucagon-like peptide 1 receptor (Homo sapiens) (UniProt P43220); test: qHTS of GLP-1 Receptor Agonists; settings: HEK293 GLP-1R CRE-luciferase, luminescence, 4-6 h, cells express a hypersensitive GLP-1R form; activation: at 45.6 µM (top of the series) unless noted; on activation: % of control where 0% means no effect
Chain of UniProt P43220 (P43220 whole entry, looked up): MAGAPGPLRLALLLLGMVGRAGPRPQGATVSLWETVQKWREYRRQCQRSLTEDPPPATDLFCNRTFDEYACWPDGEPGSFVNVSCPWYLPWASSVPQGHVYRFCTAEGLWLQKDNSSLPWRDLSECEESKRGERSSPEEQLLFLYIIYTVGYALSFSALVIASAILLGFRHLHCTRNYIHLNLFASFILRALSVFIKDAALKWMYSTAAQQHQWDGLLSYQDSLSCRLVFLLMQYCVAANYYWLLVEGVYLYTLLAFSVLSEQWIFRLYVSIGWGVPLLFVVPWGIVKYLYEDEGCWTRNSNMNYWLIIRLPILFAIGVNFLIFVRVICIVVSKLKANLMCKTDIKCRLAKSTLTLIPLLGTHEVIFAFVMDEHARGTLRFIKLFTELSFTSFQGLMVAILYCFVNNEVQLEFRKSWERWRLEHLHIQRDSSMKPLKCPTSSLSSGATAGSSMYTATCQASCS
Potency means the concentration at half of the fitted maximal effect; tags describe the fitted curve by direction and shape.

**Q.** For `COc1ccc(-c2ccc(=O)n(Cc3c(F)cccc3Cl)n2)cc1`, which Potency is on record?
**A.** inconclusive [activator, partial curve, poor fit]

**Q.** With `CCOc1ccc(NC(=O)CCCN2C(=O)C(c3ccccc3)Oc3cccnc32)cc1` (stereo unspecified) as the molecule, how does the Potency read?
**A.** inconclusive [activator, partial curve, poor fit]

**Q.** How did the “activation” value turn out when `COc1ccc(C(CNC(=O)c2cc(S(=O)(=O)N3CCN(c4ccccc4)CC3)ccc2Cl)N(C)C)cc1` (stereo unspecified) was run?
**A.** inactive: -2.16%

**Q.** Which “activation” value does the source give for `O=C(NC1CCCCCCC1)c1cccc(Cl)c1` here?
**A.** inactive: 17.5%

**Q.** Which “activation” value does the source give for `COCCCn1c(=O)c2ccccc2n(Cc2cccc(C)c2)c1=O` here?
**A.** inactive: 1.11%

**Q.** For `CC(OC(=O)c1ccc2ncsc2c1)C(=O)NC1CCCCC1C` (stereo unspecified), which Potency is on record?
**A.** inconclusive [activator, partial curve, poor fit]

**Q.** For `CNCC(O)c1ccc(OC(=O)C(C)(C)C)c(OC(=O)C(C)(C)C)c1` (stereo unspecified), which activation is on record?
**A.** inconclusive: 63.5% [activator]

**Q.** How did the Potency turn out when `COc1ccc(C2CC(c3ccc4ccccc4c3OC(C)=O)=NN2C(C)=O)cc1` (stereo unspecified) was run?
**A.** inconclusive [activator, partial curve]

**Q.** How did the Potency turn out when `N/C(Cc1ccc(Cl)cc1)=N\OC(=O)c1ccc2ccccc2c1` was run?
**A.** inconclusive [activator, single point]

**Q.** With `CCOC(=O)c1c(NC(=O)Nc2ccc(Cl)cc2)sc(C)c1C` as the molecule, how does the “activation” value read?
**A.** inactive: -8.91%

**Q.** How did the Potency turn out when `COCC(C)n1c(SCc2ccc(C(=O)OC)o2)nc2ccccc2c1=O` (stereo unspecified) was run?
**A.** inconclusive [activator, partial curve, poor fit]

**Q.** Which “activation” value does the source give for `N=c1c[n+](N2CCOCC2)[n-]o1` here?
**A.** inactive: 11.1%

**Q.** For `COCCN(Cc1ccccc1)C(=O)c1cccc(S(=O)(=O)N2CCN(c3ccccc3)CC2)c1`, which “activation” value is on record?
**A.** inactive: 9.58%

**Q.** Which Potency does the source give for `CNc1nc(Cl)c(SC)c(NCc2cccc(OC)c2)n1` here?
**A.** inconclusive [activator, partial curve, poor fit]

**Q.** How did the “activation” value turn out when `COc1ccc(C(C)=O)cc1CSc1nnc(-c2ccccc2O)n1-c1ccccc1` was run?
**A.** inactive: 0.27%

**Q.** Which “activation” value does the source give for `CCN(CC)S(=O)(=O)c1ccc2[nH]cc(C(=O)NCCCN3CCCCC3)c(=O)c2c1` here?
**A.** inactive: 4.84%

**Q.** `Cc1cc(NCCCn2ccnc2)n2c(nc3ccccc32)c1C#N` was tested. Which Potency did it give?
**A.** inconclusive [activator, partial curve]

**Q.** `O=C(NN=c1c(=O)c2ccccc2c1=O)c1ccccc1` was tested. Which “activation” value did it give?
**A.** inactive: -2.31%

**Q.** How did the Potency turn out when `C=CCn1c(-c2csc(-c3ccc(OC)c(OC)c3)n2)n[nH]c1=S` was run?
**A.** inconclusive [activator, partial curve, poor fit]

**Q.** With `CN(C)S(=O)(=O)c1cccc(COC(=O)c2cc([N+](=O)[O-])ccc2N2CCOCC2)c1` as the molecule, how does the Potency read?
**A.** inconclusive [activator, partial curve, poor fit]

**Q.** How did the activation turn out when `Cc1ccnc(SCc2cc(=O)c(OC(=O)c3cccs3)co2)n1` was run?
**A.** inconclusive: 35.9% [activator]

**Q.** How did the Potency turn out when `COc1ccc(-c2nc(N)ncc2-c2ccc(OC)c(OC)c2)c(O)c1` was run?
**A.** inconclusive [activator, partial curve, poor fit]

**Q.** `Cc1nc2cc(-c3cccc(F)c3)nn2c(N2CCN(C(=O)c3ccco3)CC2)c1C` was tested. Which Potency did it give?
**A.** inconclusive [activator, full curve]

**Q.** With `Cc1ccc(CN2CCN(c3cccc4[nH]ccc34)CC2)cc1` as the molecule, how does the “activation” value read?
**A.** inactive: 3.15%

**Q.** `Cc1cccc(OCc2nnc(SCCC(=O)O)n2-c2ccccc2)c1` was tested. Which “activation” value did it give?
**A.** inactive: -5.38%

**Q.** `O=[N+]([O-])c1cccc(/C=C/c2ccc3cccc(O)c3n2)c1` was tested. Which “activation” value did it give?
**A.** inactive: -4.17%

**Q.** For `CCn1cc(CN2CCN(Cc3ccc(C)o3)C(CCO)C2)c2ccccc21` (stereo unspecified), which “activation” value is on record?
**A.** inactive: 9.13%

**Q.** Which Potency does the source give for `CCOC(=O)c1c(C)[nH]c(C(=O)N/N=C/c2ccc(Br)cc2)c1C` here?
**A.** inconclusive [activator, full curve, poor fit]

**Q.** `CCOc1ccc(N2CC(O)(c3cccs3)[N+]3=C2CCCC3)cc1` (stereo unspecified) was tested. Which “activation” value did it give?
**A.** inactive: 0.689%

**Q.** How did the Potency turn out when `COC(=O)c1cc(OC)c(OC)cc1NC(=O)Cc1ccccc1[N+](=O)[O-]` was run?
**A.** inconclusive [activator, partial curve]

**Q.** How did the “activation” value turn out when `Cc1cc(C)cc(-n2ncc3c2CCCC3NC(=O)c2cc(C)oc2C)c1` (stereo unspecified) was run?
**A.** inactive: 0.284%

**Q.** `CCn1ccc(C(=O)Nc2c(C)nn(Cc3c(F)c(F)c(F)c(F)c3F)c2C)n1` was tested. Which Potency did it give?
**A.** inconclusive [activator, partial curve, poor fit]

**Q.** Which “activation” value does the source give for `N=C1SCC(=O)N1/N=C/c1ccccc1` here?
**A.** inactive: 2.93%

**Q.** `CCOC(=O)n1c(=O)n(Cc2ccccc2Cl)c2ccccc21` was tested. Which Potency did it give?
**A.** inconclusive [activator, partial curve, poor fit]

**Q.** Which activation does the source give for `C[C@H](CN1CCCC1)C(=O)c1ccc(C(F)(F)F)cc1` here?
**A.** inconclusive: 36.5% [activator]

**Q.** Which “activation” value does the source give for `COc1ccc2[nH]c(=O)c(C(c3nnnn3C3CCCC3)N3CCN(Cc4ccc5c(c4)OCO5)CC3)cc2c1` (stereo unspecified) here?
**A.** inactive: -2.88%

**Q.** With `COc1ccc(C2=Nn3c(nnc3-c3ccncc3)SC2)cc1OC` as the molecule, how does the Potency read?
**A.** inconclusive [activator, partial curve, poor fit]

**Q.** Which Potency does the source give for `COc1cc(-c2cc(-c3ccc(O)cc3)nc(N)c2C#N)ccc1O` here?
**A.** inconclusive [activator, partial curve]

**Q.** With `COc1ccc(-c2nnc(CSc3nc4ccccc4c(=O)n3CC(C)C)o2)cc1OC` as the molecule, how does the Potency read?
**A.** inconclusive [activator, single point]

**Q.** How did the “activation” value turn out when `Cc1ccc(S(=O)(=O)NCCSCc2ccccc2)cc1` was run?
**A.** inactive: 6.52%

**Q.** Which Potency does the source give for `O=C(c1ccc(-c2cccc(C(F)(F)F)c2)o1)N1CCOCC1` here?
**A.** inconclusive [activator, partial curve, poor fit]

**Q.** For `Cc1ccc(NC2CCCN(C(=O)CN3C(=O)c4ccccc4C3=O)C2)cc1C` (stereo unspecified), which “activation” value is on record?
**A.** inactive: -0.733%

**Q.** How did the Potency turn out when `COc1ccc(CC(=O)O/N=C(\N)c2ccc(C)cc2)cc1` was run?
**A.** inconclusive [activator, partial curve, poor fit]

**Q.** `COc1ccc(-c2cc(C(=O)N(C)Cc3cccc(OC)c3OC)c3ccccc3n2)cc1OC` was tested. Which Potency did it give?
**A.** inconclusive [activator, partial curve, poor fit]

**Q.** With `c1ccc(C2COC(c3cccs3)=N2)cc1` (stereo unspecified) as the molecule, how does the Potency read?
**A.** inconclusive [activator, partial curve]

**Q.** With `Nc1ccc2c(c1)-c1ccccc1S(=O)(=O)N2` as the molecule, how does the “activation” value read?
**A.** inactive: -7.69%
